# PubChem BioAssay AID1476 (National Center for Advancing Translational Sciences (NCATS), 2009)
# The whole screen tested about 200,000 compounds, of which about 4,500 (2.2%) were called active. Inconclusive means that the source gave no clear call. Such entries were picked first, then a sample of the others. Calls follow the shape of the dose curve; as a rule, active = well fitted inhibition curve with a large enough effect; inconclusive = small, poorly fitted or top-dose-only effect, or effect the other way; inactive = flat fitted curve, though single readings scatter. Where the call is inconclusive, the potency comes from a doubtful curve fit.
# Target: Cruzipain (Trypanosoma cruzi) (UniProt P25779)
# Chain of UniProt P25779 (P25779 whole entry, looked up): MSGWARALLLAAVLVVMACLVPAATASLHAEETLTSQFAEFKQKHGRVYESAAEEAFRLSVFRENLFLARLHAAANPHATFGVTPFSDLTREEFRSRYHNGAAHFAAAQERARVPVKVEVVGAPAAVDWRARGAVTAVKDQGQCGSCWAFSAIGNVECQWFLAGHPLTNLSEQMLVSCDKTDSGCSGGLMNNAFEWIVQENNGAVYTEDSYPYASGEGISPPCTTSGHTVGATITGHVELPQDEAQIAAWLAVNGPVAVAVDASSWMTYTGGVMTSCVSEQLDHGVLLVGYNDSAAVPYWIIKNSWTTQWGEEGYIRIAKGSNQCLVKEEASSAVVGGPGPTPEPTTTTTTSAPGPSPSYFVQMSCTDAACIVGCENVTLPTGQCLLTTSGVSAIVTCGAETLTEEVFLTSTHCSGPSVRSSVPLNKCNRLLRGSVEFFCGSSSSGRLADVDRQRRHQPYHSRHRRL
# Test: qHTS Assay for Promiscuous and Specific Inhibitors of Cruzain (without detergent); also: nearly all actives have a fitted effect of over 40% in size;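 as to max response, negative = inhibition: plate controls were enzyme without inhibitor for no effect and buffer without enzyme for full effect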
# Conditions: purified cruzain, Z-FR-AMC fluorescence, no detergent
# Outline: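 Purified cruzain at 1.5 nM, pre-incubated 15 min with compound at room temperature in 100 mM sodium acetate pH 5.5, 5 mM DTT, 0.00005% Triton X-100. Reaction started with 2 uM Z-FR-AMC; AMC fluorescence increase over 60 s gives rate.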
# Potency is read from the fitted curve at half-maximal effect; tags tell the direction and shape of the fitted curve.
SMILES,Potency,"max response, negative = inhibition"
CS(=O)(=O)Nc1cccc(C2=NN(S(=O)(=O)c3ccc(F)cc3)C(c3cccs3)C2)c1 (stereo unspecified),"inconclusive: 31.6 µM [inhibitor, single point]",–
CCCC(=O)Nc1nc(C)c(-c2csc(Nc3ccc(Cl)cc3)n2)s1,active: 12.6 µM,–
N=C1/C(=C\c2ccc(-c3cc(Cl)cc(Cl)c3)o2)C(=O)N=C2SC=C(c3ccccc3)N12,active: 2.51 µM,–
CCOc1ccccc1NC(=O)CCc1ccc(C)o1,–,inactive: 8.1%
CC1C/C(=N\NC(=S)NCc2ccccc2)CC(C)(C)C1 (stereo unspecified),–,inactive: 5.55%
CCC1CN(C(=O)N2CCC(C(=O)NCc3cccc(C)c3)CC2)c2ccccc2O1 (stereo unspecified),–,inactive: -7.88%
O=C(c1ccc(CNc2c(N3CCOCC3)c(=O)c2=O)cc1)N1CC=C(c2ccccc2)CC1,"inconclusive: 39.8 µM [activator, single point]",–
C=C(C)CSc1nc2sc3c(c2c(=O)n1-c1ccccc1)CC(C(C)C)OC3 (stereo unspecified),–,inactive: -11.8%
CCOC(=O)C1=NN(C(=O)Nc2ccc(OC)cc2)C2C(=O)N(c3cccc(C(F)(F)F)c3)C(=O)C12 (stereo unspecified),"inconclusive: 31.6 µM [activator, single point]",–
COc1ccccc1OCC(=O)Nc1cccc(-c2nc3ccccc3o2)c1,"inconclusive: 25.1 µM [activator, single point]",–
CCNc1cc(N2CCN(S(=O)(=O)c3ccc4c(c3)CCCC4)CC2)ccc1[N+](=O)[O-],active: 5.01 µM,–
CCOc1ccccc1CNC(=O)C1CCC(=O)N1C(C)C (stereo unspecified),"inconclusive: 3.16 µM [inhibitor, partial curve]",–
COc1ccc(S(=O)(=O)N2CCN(c3c(C)cccc3C)CC2)cc1OC,–,inactive: 4.34%
CCC(=O)N(C)CCc1cc2c(c(OC)c1/C=N/NC(=O)c1ccc(Br)cc1)OCO2,"inconclusive: 39.8 µM [activator, single point]",–
CCc1ccc(CNC(=O)c2ccc(NC(=O)N3CCCCc4ccccc43)cc2)cc1,–,inactive: 4.26%
CCOc1ccc(Cl)cc1S(=O)(=O)n1cnc2cc(C)c(C)cc21,"inconclusive: 25.1 µM [activator, partial curve]",–
Cc1ccc(C)c(NC(=O)CSc2ncc(S(=O)(=O)c3ccc(C)c(Cl)c3)c(=O)[nH]2)c1,–,inactive: 49%
CSc1cccc(Nc2nc3c(S(=O)(=O)c4ccccc4)nnn3c3ccc(Cl)cc23)c1,–,inactive: -5.29%
CC(=O)N1CCCc2cc(S(=O)(=O)N3CCC(C(=O)NCc4ccc(C)cc4)CC3)ccc21,"inconclusive: 31.6 µM [activator, single point]",–
Cn1cccc1C(=O)C(=O)Nc1cccc(Cl)c1Cl,"inconclusive: 39.8 µM [inhibitor, single point]",–
O=C1CC(N2CCN(c3ccc(S(=O)(=O)N4CCCC4)cc3)CC2)C(=O)N1c1ccc(F)cc1 (stereo unspecified),"inconclusive: 39.8 µM [activator, single point]",–

SMILES,Potency,"max response, negative = inhibition"
CCOC(=O)c1cc(-c2ccccc2)n(-c2cccc(C(=O)Nc3ccc(OC)cc3)c2)c1C,active: 25.1 µM,–
CC(NC(=O)CN1C(=O)NC(Cc2ccccc2)(Cc2ccccc2)C1=O)C12CC3CC(CC(C3)C1)C2 (stereo unspecified),"inconclusive: 31.6 µM [inhibitor, single point]",–
COc1ccc(C2CC(c3c(-c4ccccc4)c4cc(Cl)ccc4[nH]c3=O)=NN2S(C)(=O)=O)cc1OC (stereo unspecified),"inconclusive: 20 µM [activator, partial curve]",–
COC(=O)C1=C(C)NC(=S)NC1c1ccc(-c2cccc(Cl)c2)o1 (stereo unspecified),active: 25.1 µM,–
CCc1ccc(-c2nn(CC(=O)Nc3ccccc3)c3c2cnc2ccc(F)cc23)cc1,–,inactive: -22.4%
COc1ccc(N2CCN(C(=O)c3cn(CC(C)C)c(=O)c4c3c3ccccc3n4C)CC2)cc1,"inconclusive: 31.6 µM [activator, single point]",–
C=C(CC1([C@@H](NP(=O)(c2ccccc2)c2ccccc2)[C@H]2C[C@@H]2CCCC)CC1)c1ccccc1,"inconclusive: 39.8 µM [inhibitor, single point]",–
Cc1ccccc1C(=O)Nc1ccc(-c2nc3ccc(C(=O)c4ccccc4)cc3[nH]2)cc1,active: 12.6 µM,–
CCOc1ccc(NC(=O)CN(C)CC(=O)Nc2cccc(Cl)c2C)cc1OCC,"inconclusive: 31.6 µM [activator, single point]",–
CN(C)c1ccc(NC(=O)c2sc(SCC(=O)Nc3nccs3)nc2N)cc1,"inconclusive: 25.1 µM [inhibitor, partial curve, poor fit]",–
O=C(CSCc1ccccc1Cl)N1CCN(c2ccc(F)cc2)CC1,–,inactive: 9.22%
COc1cc(-c2nnn(CC(=O)Nc3ccc(OC(F)(F)F)cc3)n2)cc(OC)c1OC,"inconclusive: 31.6 µM [activator, single point]",–
CCOC(=O)c1cccc(NC(=O)CN2C(=O)c3ccccc3Sc3ncccc32)c1,"inconclusive: 39.8 µM [activator, single point]",–
N#Cc1nc(COc2ccc(Br)cc2)oc1N1CCCCCC1,"inconclusive: 7.94 µM [inhibitor, partial curve]",–
C/C(=N/NC(=O)c1ccc(NC(=O)c2ccc(F)cc2)cc1)c1ccccc1,"inconclusive: 25.1 µM [inhibitor, single point]",–
COCCCNC(=O)CN1C(=O)/C(=C\c2ccc(C)cc2)Sc2ccccc21,"inconclusive: 39.8 µM [activator, single point]",–
CCCCN(CCCC)S(=O)(=O)c1ccc(C(=O)Nc2nnc(COC)o2)cc1,"inconclusive: 25.1 µM [activator, partial curve]",–
Cc1ccc2c(c1)C(c1ccc(F)cc1)N(C(=O)COc1ccc(Cl)cc1Cl)CC(=O)N2 (stereo unspecified),"inconclusive: 25.1 µM [inhibitor, single point]",–
O=C(NNc1nc2ccc(Cl)cc2s1)c1cc(-c2cccs2)nc2ccccc12,active: 7.94 µM,–
COc1ccc(C)cc1S(=O)(=O)N(CC(=O)Nc1cccc([N+](=O)[O-])c1)c1ccc(C)c(C)c1,active: 31.6 µM,–
